Source: a collection of fitness landscapes (doi:10.1016/j.celrep.2020.107928)
Whole data set: some 81,000 sequences, median “one-hybrid fitness for binding NBS DNA” near -0.1, cut for the highest 2% near 0.36. Some of the results follow.

B1: Caulobacter ParB omega fusion; a variant is named by its letters at X, in order, B8GW30 (parent)
chain: MESVVVGEPGMSEGRRGLGRGLSALLGEVDAAPAQAPGEQLGGSREAPIEILQRNPDQPRRTFREEDLEDLSNSIREKGVLQPILVRPSPDTAGEYQIVAGERAWRAAQRAGLKTVPIMVRELDDLAVLEIGIIENVQRADLNVLEEALSYKVLMEKFERTQENIAQTIGKSXSHVANXMRLLXLPDEVQSYLVSGELTAXHARAIAAAADPVALAKQIIEGGLSVRETEALARKAPNLSAGKSKGGRPPRVKDTDTQALESDLSSVLGLDVSIDHRGSTGTLTITYATLEQLDDLCNRLTRGI

Variants of: B1
Assay: one-hybrid fitness for binding NBS DNA (the Noc-binding site; scaled: cognate 1, non-cognate 0); higher = stronger binding
Conditions: with NBS DNA site
Summary of the method: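 Fitness here means the log change in variant-to-wild-type read ratio between plasmids sequenced before and after selection. That scale was set so cognate equals 1 and non-cognate equals 0. The selection was a bacterial one-hybrid screen of Caulobacter ParB libraries, four specificity codons randomised, in E. coli USO carrying a HIS3 reporter with the site 19 bp from the promoter, grown 48 hours at 37°C on M9-minus-histidine with 0.1 mM IPTG and 5 mM 3-AT.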

one-hybrid fitness for binding NBS DNA, 0.32:
QASS
RQRY

one-hybrid fitness for binding NBS DNA, 0.37:
RHCR

one-hybrid fitness for binding NBS DNA, 0.27:
RIMS

one-hybrid fitness for binding NBS DNA, 0.236:
RCGQ

one-hybrid fitness for binding NBS DNA, 0.606:
RKGR

one-hybrid fitness for binding NBS DNA, 0.222:
YCRR

one-hybrid fitness for binding NBS DNA, 0.362:
QSKM

one-hybrid fitness for binding NBS DNA, 0.511:
QRVA

one-hybrid fitness for binding NBS DNA, 0.408:
AEPR

one-hybrid fitness for binding NBS DNA, 0.22:
QSRE

one-hybrid fitness for binding NBS DNA, 0.284:
RRSQ

one-hybrid fitness for binding NBS DNA, 0.521:
RCYS

one-hybrid fitness for binding NBS DNA, 0.329:
QLAS

one-hybrid fitness for binding NBS DNA, 0.368:
KRKY

one-hybrid fitness for binding NBS DNA, 0.208:
HYRR

one-hybrid fitness for binding NBS DNA, 0.347:
RHCS

one-hybrid fitness for binding NBS DNA, 0.321:
QYRG

one-hybrid fitness for binding NBS DNA, ≤ 0.2:
GLAY
PWNP
CQHV
FRSK
MMNR
TMDF
YKSW
QCQD
SGER
EALC
SSHT
NKCV
YSFV
SPAY
DKTC
HGTW
KPMT
VTSV
HLAP
AIYH
QLTW
HPPC
SNTY
STYN
SKWS
CRVK
DRHY
TDHM
NWIV
GRTT
AKAM
NMGN
GRMM
AKMC
NCKT
GLPG
QCPI
PEAR
RLWC
HPPL
CHAC
TMKD
QECT
QQQH
VKWG
LSLS
PYYS
PFQA
RRFF
STDL
AHDM
RSCK
DFQG
VVNC
NYRS
ARSF
NWGG
HKLG
KLNS
DSFS
QAML
DWLV
KNAV
KPSY
EYTM
KVSY
LFGG
NCWR
MGEG
WAHS
NGRT
LQKY
QQGG
PYID
IWME
WHAD
DTMP
KRTC
FFTR
RHCY
TTWS
QKTV
WMYR
TFSS
CLRC
HMQA
AERR
YSGE
MYGS
AGHL
LSDN
PTMN
YAQL
AMEI
DLLQ
SHAM
WRNV
EPLA
MKLI
QLLK
KNPF
TTAW
LVDV
LTKK
LGQD
KAEN
KFKM
NKSY
DAKM
GPGT
VPTP
ILGG
YAMS
DLAV
ILML
TNRA
ESLC
TRPE
HLHY
SGYF
RCNW
LYIL
QDIS
MGTT
YKGD
GGHG
PFLE
YACP
QMNV
VTKT
APRA
SSAY
RDKW
HPNR
SCLV
RTMC
ACCT
VLLM
MILT
RYLV
KMHM
RLSV
TRCM
EPCG
FPGS
RGNM
RHPA
AQYR
RAIW
MLMS
VHNS
RWGG
QLMA
HVNI
YVTR
SHRM
SINV
FQLS
QLQI
GKIT
VTGN
YECC
LRST
RVHI
KLMN
WTTS
SVIC
GRDH
VMLR
TVDV
MVKL
ATIN
TPVC
TTKI
PVLN
GDPG
ADDT
WTMT
ANGP
TLKG
FNVS
CSLW
YKDF
NGQT
RDTF
RHQN
TSRM
LKAK
QQHG
WLWG
RHCD
RTYG
GDTT
SHRY
RSEA
KPEK
ISFG
QPQL
PHSG
KLGH
HENG
PCVP
IRLA
VNTG
DSLC
LGKL
TGYY
KCAL
NDKV
ATCL
DKVT
AVPL
QPHT
PRFL
VMER
CSNY
DHAC
FDNG
ARFT
AKGY
HSSA
TPSI
KPNR
MANR
RNQA
PLFF
VYPW
VYYM
DRDI
LQIT
DVAM
VGFG
QLSG
STEC
ADQL
NVHN
NHPD
CTPY
EMRT
PTVS
LVSG
YGTV
TPHH
FPTS
STKK
AVTC
QTWK
RGYK
HNSY
YAGM
NVKS
FSGF
RNAM
FGAS
GWSC
PAYD
YVYL
DIRL
NRLL
MLKT
TYNR
WAVR
LGPA
DCNM
MRPD
KPLR
MQNK
SDPN
GMAE
FNNR
PRCD
RMDI
GRNT
TRTE
PAEV
RPLM
DTNV
TAQC
TSIE
TSHA
FLER
NWKW
LTAW
FETG
QGRN
VVIM

one-hybrid fitness for binding NBS DNA, 0.355:
QQNH

one-hybrid fitness for binding NBS DNA, 0.441:
RIGR
